We go through 39 molecules from PubChem BioAssay AID1745853 (National Center for Advancing Translational Sciences (NCATS), 2022).

Structures are written as SMILES. Some of the results follow. The main result of the screen is listed elsewhere. These columns were measured beside it and carry no call.

What all share (assay): Primary Screen for Target Class Profiling of Small Molecule Inhibitors of Methyltransferases
The target in test [1] is Glycine N-methyltransferase (Homo sapiens) (UniProt Q14749). As to conditions: purified enzyme, MTase-Glo SAH luminescence; measured here: GNMT inhibition; at 40 µM; stronger effect = lower value. The procedure, abridged: (§1)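 Each enzyme was reacted with SAM and its substrate, with compounds tested once at 40 uM; SAH formed was read by MTase-Glo luminescence.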
Test [2] deals with Guanidinoacetate N-methyltransferase (Homo sapiens) (UniProt Q14353). To be noted: purified enzyme, MTase-Glo SAH luminescence; measured here: GAMT inhibition; at 40 µM; stronger effect = lower value. The procedure, abridged:
as §1

The target of test [3] is Histamine N-methyltransferase (Homo sapiens) (UniProt P50135). As to conditions: purified enzyme, MTase-Glo SAH luminescence; measured here: HNMT inhibition; at 40 µM; stronger effect = lower value. The procedure, abridged: as §1
Test [4] concerns the target Nicotinamide N-methyltransferase (Homo sapiens) (UniProt P40261). As to conditions: purified enzyme, MTase-Glo SAH luminescence; measured here: NNMT inhibition; at 40 µM; stronger effect = lower value. The procedure, abridged: as §1
Test [5] has as its target Phenylethanolamine N-methyltransferase (Homo sapiens) (UniProt P11086). As to conditions: purified enzyme, MTase-Glo SAH luminescence; measured here: PNMT inhibition; at 40 µM; stronger effect = lower value. Put shortly:
as §1
% is scaled to controls: 0 for no effect and ±100 for the full control effect.

On to `COC(=O)c1cccc(NC(=O)N2Cc3c(sc4c3CCCC4)-n3cccc3C2c2cccc(F)c2)c1` (stereo not given), for which the activity change, negative = inhibition was -2.08% in test [1]; 0% in test [2]; 4.74% in test [3]; -0.921% in test [4]; 4.12% in test [5].

For the molecule `CCn1cc(C(=O)O)c(=O)c2cc(F)c(N3CCNC(C)C3)c(F)c21` (stereo not given), the activity change, negative = inhibition is 4.17% in test [1]; 13.7% in test [2]; -2.15% in test [3]; 1.56% in test [4]; 11.3% in test [5].

As to `CC(=O)OC(C)(C)/C=C/C(=O)C(C)(O)C1C(O)CC2(C)C3CC=C(C(C)(C)C(=O)O)C(CC(=O)O)C3(C)C(=O)CC12C` (stereo not given), the activity change, negative = inhibition in test [1] is 0%; in test [2] it was -0.043%; in test [3], 4.38%; in test [4], -10.6%; in test [5] it was 6.53%.

Consider `Nc1nc2c(c(N3CC[C@@H](N)C3)n1)CCCc1ccccc1-2`, for which the activity change, negative = inhibition is 1.03% in test [1]; 5.04% in test [2]; -17.3% in test [3]; -18.3% in test [4]; 3.26% in test [5].

As to `CC(=O)N1CCN(CC[C@H]2CN(C(=O)c3ccc(N(C)C)cc3)CC[C@H]2CC(=O)O)CC1`, the activity change, negative = inhibition in test [1] is -6.62%; in test [2], -6.83%; in test [3], -3.34%; in test [4], -5.71%; in test [5] it was -4.26%.

`CS(=O)(=O)Nc1ccc([N+](=O)[O-])cc1Oc1ccccc1`: the activity change, negative = inhibition was -11.7% in test [1]; 4.95% in test [2]; -1.18% in test [3]; -7.74% in test [4]; 7.73% in test [5].

As for `CC1=C[C@@H](CN(CC2CC2)CC2CC2)[C@H](C(C)C)C[C@H]1Cc1nc2ccncc2[nH]1`, the activity change, negative = inhibition in test [1] was -2.22%; in test [2], -0.387%; in test [3] it was -83.3%; in test [4], -25.9%; in test [5], 3.57%.

Consider `CCCCN1C(=O)c2ccc(-c3ccccc3)n2CC1(C)C(=O)NC1CCCCC1` (stereo not given), for which the activity change, negative = inhibition in test [1] amounted to 3.86%; in test [2], 0%; in test [3], 3.76%; in test [4], 0.402%; in test [5] it was 3.35%.

As to `CCc1ccc(N2C(=O)c3cc(-c4ccc(OC)cc4)nn3CC2(C)C(=O)NC2CCCCC2)cc1` (stereo not given), the activity change, negative = inhibition in test [1] is -3.56%; in test [2] it was 4.28%; in test [3], -3.47%; in test [4] it was -3.62%; in test [5] it was -7.13%.

On to `CCCn1c(=O)c2ccc(Cl)cc2n2c(=O)n(CC(=O)Nc3ccc(C)cc3C)nc12`, for which the activity change, negative = inhibition is -0.293% in test [1]; 3.6% in test [2]; 1.87% in test [3]; 0.739% in test [4]; -0.765% in test [5].

As to `N#Cc1ccc(CN2CCCC3(CC(c4cccnc4)=NO3)C2)cc1` (stereo not given), the activity change, negative = inhibition is -4.27% in test [1]; -5.17% in test [2]; -3.63% in test [3]; -3.9% in test [4]; -3.1% in test [5].

As for `CC[C@]12CCCN3CCc4c(n(c5ccccc45)C(=O)C1)[C@@H]32`, the activity change, negative = inhibition in test [1] was 2.83%; in test [2], 1.25%; in test [3], 8.41%; in test [4], -23.9%; in test [5] it was -4.68%.

With `Cc1nn(C)cc1CN1CCC(O)(c2ccccc2)[C@H](N2CCCC2)C1` (stereo not given in full), the activity change, negative = inhibition was -13.9% in test [1]; -6.49% in test [2]; -12.6% in test [3]; -13.1% in test [4]; -4.92% in test [5].

For the molecule `COc1ccc(N2C(=O)c3cc4ccccc4n3CC2(C)C(=O)NC2CCCC2)cc1OC` (stereo not given), the activity change, negative = inhibition is -3.28% in test [1]; 3.51% in test [2]; -4.52% in test [3]; 1.5% in test [4]; -2.86% in test [5].

Consider `CC(C)CCNC(=O)N1CC[C@@H]2COC(=O)N(Cc3ccccc3)[C@@H]2C1`, for which the activity change, negative = inhibition was -5.02% in test [1]; -13.4% in test [2]; -5.22% in test [3]; -24.3% in test [4]; -11.7% in test [5].

Consider `CCc1cc2c(cc3n2CC(C)(C(=O)NC2CCC(C)CC2)N(c2cccc(OC)c2)C3=O)s1` (stereo not given), for which the activity change, negative = inhibition is 0.52% in test [1]; 0% in test [2]; 4.21% in test [3]; -9.35% in test [4]; 0.727% in test [5].

Regarding `CC(C(=O)NCc1cccc(F)c1)n1ccc2cc(S(=O)(=O)N3CCCC3)ccc21` (stereo not given), the activity change, negative = inhibition in test [1] is 0.578%; in test [2], 0%; in test [3], 1.86%; in test [4], -4.31%; in test [5], -2.43%.

In the case of `CCN1C(=O)Cc2cc(C(=O)NCCC(C)C)ccc21`, the activity change, negative = inhibition in test [1] is 0.845%; in test [2], 1.37%; in test [3], 2.95%; in test [4], -1.24%; in test [5], 10.4%.

For `CC1(C(=O)NC2CCCCC2)Cc2ccccc2C(=O)N1C1CCCCCC1` (stereo not given), the activity change, negative = inhibition in test [1] was -3.51%; in test [2] it was 4.74%; in test [3] it was 4.62%; in test [4] it was 9.51%; in test [5], -1.84%.

`COc1cccc(C(=O)Cn2nc3n(C(C)C)c(=O)c4ccc(C(=O)NC5CCCCC5)cc4n3c2=O)c1`: the activity change, negative = inhibition in test [1] was -0.2%; in test [2] it was 1.8%; in test [3], 5%; in test [4] it was -4.64%; in test [5], -0.943%.

For the molecule `COc1c(O)cc2c(c1O)C(=O)O[C@H](C)[C@H]2O`, the activity change, negative = inhibition in test [1] is 0%; in test [2], 0.735%; in test [3], -2.94%; in test [4], -9.99%; in test [5], 4.21%.

Turning to `CC1CCC(N2C(=O)c3cc4occc4n3CC2(C)C(=O)NC2CCCCC2)CC1` (stereo not given), the activity change, negative = inhibition worked out at 2.41% in test [1]; 0.033% in test [2]; 2.96% in test [3]; 7.1% in test [4]; 0.028% in test [5].

Consider `COc1ccccc1CNC(=O)CCc1nnc2n(Cc3ccc(C)cc3)c(=O)c3ccccc3n12`, for which the activity change, negative = inhibition in test [1] was -5.8%; in test [2] it was 0.593%; in test [3], 9.69%; in test [4], 10.7%; in test [5], 2.79%.

Regarding `CCC(C(=O)NCCC(C)C)n1ccc2cc(S(=O)(=O)N3CCCCC3)ccc21` (stereo not given), the activity change, negative = inhibition in test [1] was 2.73%; in test [2], 0.485%; in test [3], 4.13%; in test [4], 2.1%; in test [5], 0.967%.

In the case of `CC(=O)Nc1ccc(-c2nnc3n(Cc4ccccc4Cl)c(=O)c4ccccc4n23)cc1`, the activity change, negative = inhibition was -24.1% in test [1]; 1.01% in test [2]; 1.49% in test [3]; 0.831% in test [4]; -1.33% in test [5].

Regarding `Cc1oc2c(c1C(=O)N1CCOCC1)CN(C(=O)c1ccncc1)CC2`, the activity change, negative = inhibition in test [1] is -4.05%; in test [2] it was -6.28%; in test [3], -3.44%; in test [4], -4.55%; in test [5], -3.95%.

`Cc1nc(N2CCC(NC(=O)COc3ccccc3)CC2)cc(C(F)(F)F)n1`: the activity change, negative = inhibition in test [1] is -1.98%; in test [2] it was 0.337%; in test [3], -1.03%; in test [4], 0.858%; in test [5] it was 0.943%.

`CC(N)(C(=O)O)c1ccc(C(=O)O)cc1` (stereo not given): the activity change, negative = inhibition in test [1] is 4.46%; in test [2], 13.8%; in test [3], 8.68%; in test [4] it was -2.04%; in test [5], 6.74%.

On to `CCOC(=O)CNC(=O)C1(C)Cn2c(ccc2-c2ccco2)C(=O)N1c1ccc(OC)c(OC)c1` (stereo not given), for which the activity change, negative = inhibition in test [1] is -6.97%; in test [2], 0%; in test [3], 10.6%; in test [4], 15.1%; in test [5] it was 2.29%.

Consider `CNC(=O)c1cc(C2CC2)nc2onc(C3CCCN3C(C)=O)c12` (stereo not given), for which the activity change, negative = inhibition in test [1] was -2.06%; in test [2], -0.627%; in test [3] it was 1.02%; in test [4], -2.73%; in test [5], -0.095%.

As for `COc1ccc(-c2cc3n(n2)CC(C)(C(=O)NCc2ccccc2OC)N(c2ccc(C)cc2)C3=O)cc1` (stereo not given), the activity change, negative = inhibition was found to be 4.58% in test [1]; 3.33% in test [2]; 6.93% in test [3]; 8.87% in test [4]; 0.166% in test [5].

`Cc1cccc(NC(=O)Cn2nc3n(CC(C)C)c(=O)c4ccc(C(=O)NC5CCCC5)cc4n3c2=O)c1`: the activity change, negative = inhibition in test [1] amounted to 5.65%; in test [2], 2.76%; in test [3], 12.1%; in test [4], 6.68%; in test [5], 8.43%.

For `CN1CCc2cccc3c2C1Cc1ccc(O)c(O)c1-3` (stereo not given), the activity change, negative = inhibition was -88% in test [1]; -3.31% in test [2]; -14.5% in test [3]; -13.9% in test [4]; -4.46% in test [5].

Turning to `COc1cccc(C(=O)N2CCC(Oc3ccccc3-c3nc(C4CCOCC4)no3)C2)c1` (stereo not given), the activity change, negative = inhibition in test [1] is -6.5%; in test [2], -2.97%; in test [3] it was -3.19%; in test [4] it was -12.8%; in test [5], -0.376%.

For the molecule `CC#CCOC(=O)c1c(C)nc2sc3c(c2c1N)CCC(O)C3` (stereo not given), the activity change, negative = inhibition in test [1] is -14.7%; in test [2], 1.08%; in test [3], -1.63%; in test [4], -10.3%; in test [5] it was 1.39%.

Turning to `Cc1ccccc1CNC(=O)C1(C)Cc2ccccc2C(=O)N1C1CCCCC1` (stereo not given), the activity change, negative = inhibition in test [1] stood at 12.2%; in test [2], 3.84%; in test [3] it was 12.1%; in test [4], 0.828%; in test [5], 8.59%.

Take `CC(=O)OCCC(C)CCC1C(C)(O)CCC2C(C)(C)CCCC21C` (stereo not given): the activity change, negative = inhibition in test [1] was 0%; in test [2] it was 7.81%; in test [3] it was 4.32%; in test [4], -13.3%; in test [5], 4.02%.

For `CCOC(=O)c1cc2n(n1)CC(C)(C(=O)NCc1ccc(F)cc1)N(Cc1cccc(OC)c1OC)C2=O` (stereo not given), the activity change, negative = inhibition in test [1] was 0.946%; in test [2], 3.17%; in test [3], 0.406%; in test [4], 5.09%; in test [5], 1.41%.

For `CN1c2cc(C(N)=O)ccc2C(=O)N2CCCC21` (stereo not given), the activity change, negative = inhibition in test [1] is -3.45%; in test [2] it was 0.85%; in test [3], 0.135%; in test [4], -0.758%; in test [5], 11.5%.
